Some of the results follow.
What was measured:
Experiment in all cases: glycan array binding signal (z-score within array); higher = stronger binding
Conditions in all cases: glycan notation: IUPAC condensed, linker removed
[1] = target: Man(a1-3)[Man(a1-6)]Man
In short: (§1)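 Glycan array binding is given as a within-array Z-score, which can be read as non-binding when negative. The arrays, 3228 of them, came from the Consortium for Functional Glycomics database and were retained only where the protein sequence was available. Z-scores were averaged across arrays of the same protein sequence at different concentrations or buffers and across linkers.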

[2] = target: Man(a1-3)[Man(a1-6)]Man(a1-6)[Man(a1-2)Man(a1-3)]Man(b1-4)GlcNAc(b1-4)GlcNAc
In short: as §1

[3] = target: Man(a1-3)[Man(a1-6)]Man(a1-6)[Man(a1-3)]Man
In short: as §1

[4] = target: Man(a1-3)[Man(a1-6)]Man(a1-6)[Man(a1-3)]Man(b1-4)GlcNAc(b1-4)GlcNAc
In short: as §1

[5] = target: Man(a1-3)[Man(a1-6)]Man(b1-4)GlcNAc(b1-4)GlcNAc
In short: as §1

[6] = target: Man(a1-3)[Man(a1-6)]Man(b1-4)GlcNAc(b1-4)[Fuc(a1-6)]GlcNAc
In short: as §1

[7] = target: Man(a1-6)Man
In short: as §1

[8] = target: Man(b1-4)GlcNAc
In short: as §1

[9] = target: MurNAc(b1-4)GlcNAc
In short: as §1

[10] = target: Neu5Ac(a2-3)Gal
In short: as §1

[11] = target: Neu5Ac(a2-3)Gal(b1-3)GalNAc
In short: as §1

[12] = target: Neu5Ac(a2-3)Gal(b1-3)GalNAc(b1-3)Gal(a1-4)Gal(b1-4)Glc
In short: as §1

[13] = target: Neu5Ac(a2-3)Gal(b1-3)GalNAc(b1-3)Gal(b1-4)GlcNAc
In short: as §1

[14] = target: Neu5Ac(a2-3)Gal(b1-3)GalNAc(b1-4)[Neu5Ac(a2-3)]Gal(b1-4)Glc
In short: as §1

[15] = target: Neu5Ac(a2-3)Gal(b1-3)GalNAc(b1-4)[Neu5Ac(a2-8)Neu5Ac(a2-3)]Gal(b1-4)Glc
In short: as §1

[16] = target: Neu5Ac(a2-3)Gal(b1-3)GalNAc6S
In short: as §1

[17] = target: Neu5Ac(a2-3)Gal(b1-3)GlcNAc
In short: as §1

[18] = target: Neu5Ac(a2-3)Gal(b1-3)GlcNAc(b1-2)Man
In short: as §1

[19] = target: Neu5Ac(a2-3)Gal(b1-3)GlcNAc(b1-2)Man(a1-3)[GlcNAc(b1-4)][Neu5Ac(a2-3)Gal(b1-3)GlcNAc(b1-2)Man(a1-6)]Man(b1-4)GlcNAc(b1-4)GlcNAc
In short: as §1

[20] = target: Neu5Ac(a2-3)Gal(b1-3)GlcNAc(b1-2)Man(a1-3)[Neu5Ac(a2-3)Gal(b1-3)GlcNAc(b1-2)Man(a1-6)]Man(b1-4)GlcNAc(b1-4)GlcNAc
In short: as §1

[21] = target: Neu5Ac(a2-3)Gal(b1-3)GlcNAc(b1-2)[Neu5Ac(a2-3)Gal(b1-3)GlcNAc(b1-4)]Man(a1-6)[Neu5Ac(a2-3)Gal(b1-3)GlcNAc(b1-2)Man(a1-3)]Man(b1-4)GlcNAc(b1-4)GlcNAc
In short: as §1

[22] = target: Neu5Ac(a2-3)Gal(b1-3)GlcNAc(b1-3)Gal(b1-3)GlcNAc
In short: as §1

[23] = target: Neu5Ac(a2-3)Gal(b1-3)GlcNAc(b1-3)Gal(b1-4)GlcNAc
In short: as §1

[24] = target: Neu5Ac(a2-3)Gal(b1-3)GlcNAc(b1-3)GalNAc
In short: as §1

[25] = target: Neu5Ac(a2-3)Gal(b1-3)GlcNAc(b1-4)Gal(b1-4)Glc
In short: as §1

[26] = target: Neu5Ac(a2-3)Gal(b1-3)GlcNAc(b1-6)GalNAc
In short: as §1

[27] = target: Neu5Ac(a2-3)Gal(b1-3)GlcNAc6S
In short: as §1

[28] = target: Neu5Ac(a2-3)Gal(b1-3)[Fuc(a1-4)]GlcNAc
In short: as §1

[29] = target: Neu5Ac(a2-3)Gal(b1-3)[Fuc(a1-4)]GlcNAc(b1-3)Gal(b1-3)[Fuc(a1-4)]GlcNAc
In short: as §1

[30] = target: Neu5Ac(a2-3)Gal(b1-3)[Fuc(a1-4)]GlcNAc(b1-3)Gal(b1-4)[Fuc(a1-3)]GlcNAc
In short: as §1

[31] = target: Neu5Ac(a2-3)Gal(b1-3)[GlcNAc(b1-6)]GalNAc
In short: as §1

[32] = target: Neu5Ac(a2-3)Gal(b1-3)[Neu5Ac(a2-3)Gal(b1-4)]GlcNAc
In short: as §1

[33] = target: Neu5Ac(a2-3)Gal(b1-3)[Neu5Ac(a2-6)]GalNAc
In short: as §1

[34] = target: Neu5Ac(a2-3)Gal(b1-3)[Neu5Ac(a2-6)]GlcNAc(b1-3)[Fuc(a1-3)[Gal(b1-4)]GlcNAc(b1-6)]Gal(b1-4)Glc
In short: as §1

[35] = target: Neu5Ac(a2-3)Gal(b1-3)]Neu5Ac(a2-3)Gal(b1-4)]GlcNAc
In short: as §1

[36] = target: Neu5Ac(a2-3)Gal(b1-4)Glc
In short: as §1

[37] = target: Neu5Ac(a2-3)Gal(b1-4)GlcNAc
In short: as §1

[38] = target: Neu5Ac(a2-3)Gal(b1-4)GlcNAc(b1-2)Man
In short: as §1

[39] = target: Neu5Ac(a2-3)Gal(b1-4)GlcNAc(b1-2)Man(a1-3)[GlcNAc(b1-4)][Neu5Ac(a2-3)Gal(b1-4)GlcNAc(b1-2)Man(a1-6)]Man(b1-4)GlcNAc(b1-4)GlcNAc
In short: as §1

[40] = target: Neu5Ac(a2-3)Gal(b1-4)GlcNAc(b1-2)Man(a1-3)[Neu5Ac(a2-3)Gal(b1-4)GlcNAc(b1-2)Man(a1-6)]Man(b1-4)GlcNAc(b1-4)GlcNAc
In short: as §1

[41] = target: Neu5Ac(a2-3)Gal(b1-4)GlcNAc(b1-2)Man(a1-3)[Neu5Ac(a2-3)Gal(b1-4)GlcNAc(b1-2)Man(a1-6)]Man(b1-4)GlcNAc(b1-4)[Fuc(a1-6)]GlcNAc
In short: as §1

[42] = target: Neu5Ac(a2-3)Gal(b1-4)GlcNAc(b1-2)Man(a1-3)[Neu5Ac(a2-6)Gal(b1-4)GlcNAc(b1-2)Man(a1-6)]Man(b1-4)GlcNAc(b1-4)GlcNAc
In short: as §1

[43] = target: Neu5Ac(a2-3)Gal(b1-4)GlcNAc(b1-2)[Neu5Ac(a2-3)Gal(b1-4)GlcNAc(b1-4)]Man(a1-3)[GlcNAc(b1-4)][Neu5Ac(a2-3)Gal(b1-4)GlcNAc(b1-2)[Neu5Ac(a2-3)Gal(b1-4)GlcNAc(b1-6)]Man(a1-6)]Man(b1-4)GlcNAc(b1-4)GlcNAc
In short: as §1

[44] = target: Neu5Ac(a2-3)Gal(b1-4)GlcNAc(b1-2)[Neu5Ac(a2-3)Gal(b1-4)GlcNAc(b1-4)]Man(a1-3)[GlcNAc(b1-4)][Neu5Ac(a2-3)Gal(b1-4)GlcNAc(b1-4)Man(a1-6)]Man(b1-4)GlcNAc(b1-4)GlcNAc
In short: as §1

[45] = target: Neu5Ac(a2-3)Gal(b1-4)GlcNAc(b1-2)[Neu5Ac(a2-3)Gal(b1-4)GlcNAc(b1-6)]Man(a1-6)[Neu5Ac(a2-3)Gal(b1-4)GlcNAc(b1-2)Man(a1-3)][GlcNAc(b1-4)]Man(b1-4)GlcNAc(b1-4)GlcNAc
In short: as §1

B1: BDCA-2 (Homo sapiens), Q8WTT0 (protein)
chain: MVPEEEPQDREKGLWWFQLKVWSMAVVSILLLSVCFTVSSVVPHNFMYSKTVKRLSKLREYQQYHPSLTCVMEGKDIEDWSCCPTPWTSFQSSCYFISTGMQSWTKSQKNCSVMGADLVVINTREEQDFIIQNLKRNSSYFLGLSDPGGRRHWQWVDQTPYNENVTFWHSGEPNNLDERCAIINFRSSEEWGWNDIHCHVPQKSICKMKKIYI
Which “glycan array binding signal (z-score)” value [1] does the source give for B1 here?
The value was -0.213.

And the “glycan array binding signal (z-score)” value [2]?
Its value is -0.087.

And the “glycan array binding signal (z-score)” value [3]?
The value was -0.163.

What about the “glycan array binding signal (z-score)” value [4] of the same binder?
Its value is -0.184.

What about the “glycan array binding signal (z-score)” value [5] of the same binder?
The value was -0.165.

What about the “glycan array binding signal (z-score)” value [6] of the same binder?
The value was -0.173.

And the “glycan array binding signal (z-score)” value [7]?
Its value is -0.104.

And the “glycan array binding signal (z-score)” value [8]?
Its value is -0.331.

What about the “glycan array binding signal (z-score)” value [9] of the same binder?
Its value is -0.187.

And the “glycan array binding signal (z-score)” value [10]?
Its value is -0.068.

What about the “glycan array binding signal (z-score)” value [11] of the same binder?
Its value is -0.215.

What about the “glycan array binding signal (z-score)” value [12] of the same binder?
Its value is -0.141.

And the “glycan array binding signal (z-score)” value [13]?
Its value is -0.21.

And the “glycan array binding signal (z-score)” value [14]?
The value was -0.233.

And the “glycan array binding signal (z-score)” value [15]?
Its value is -0.092.

And the “glycan array binding signal (z-score)” value [16]?
The value was -0.127.

And the “glycan array binding signal (z-score)” value [17]?
Its value is -0.278.

And the “glycan array binding signal (z-score)” value [18]?
Its value is 0.013.

And the “glycan array binding signal (z-score)” value [19]?
Its value is -0.182.

And the “glycan array binding signal (z-score)” value [20]?
Its value is -0.169.

And the “glycan array binding signal (z-score)” value [21]?
Its value is 0.022.

What about the “glycan array binding signal (z-score)” value [22] of the same binder?
Its value is -0.196.

What about the “glycan array binding signal (z-score)” value [23] of the same binder?
The value was -0.173.

What about the “glycan array binding signal (z-score)” value [24] of the same binder?
Its value is -0.145.

What about the “glycan array binding signal (z-score)” value [25] of the same binder?
The value was -0.157.

What about the “glycan array binding signal (z-score)” value [26] of the same binder?
Its value is -0.169.

And the “glycan array binding signal (z-score)” value [27]?
The value was -0.322.

And the “glycan array binding signal (z-score)” value [28]?
The value was -0.28.

What about the “glycan array binding signal (z-score)” value [29] of the same binder?
The value was -0.175.

And the “glycan array binding signal (z-score)” value [30]?
The value was -0.166.

What about the “glycan array binding signal (z-score)” value [31] of the same binder?
Its value is -0.194.

What about the “glycan array binding signal (z-score)” value [32] of the same binder?
Its value is -0.192.

What about the “glycan array binding signal (z-score)” value [33] of the same binder?
Its value is -0.155.

What about the “glycan array binding signal (z-score)” value [34] of the same binder?
The value was -0.188.

What about the “glycan array binding signal (z-score)” value [35] of the same binder?
The value was -0.146.

And the “glycan array binding signal (z-score)” value [36]?
Its value is -0.202.

What about the “glycan array binding signal (z-score)” value [37] of the same binder?
The value was -0.303.

And the “glycan array binding signal (z-score)” value [38]?
The value was -0.003.

And the “glycan array binding signal (z-score)” value [39]?
Its value is -0.174.

And the “glycan array binding signal (z-score)” value [40]?
Its value is -0.23.

What about the “glycan array binding signal (z-score)” value [41] of the same binder?
Its value is -0.168.

And the “glycan array binding signal (z-score)” value [42]?
Its value is -0.156.

What about the “glycan array binding signal (z-score)” value [43] of the same binder?
Its value is -0.159.

What about the “glycan array binding signal (z-score)” value [44] of the same binder?
Its value is -0.171.

What about the “glycan array binding signal (z-score)” value [45] of the same binder?
Its value is -0.182.
